# Results reported in PubChem BioAssay AID1347165 (National Center for Advancing Translational Sciences (NCATS), 2019).
# Where “and” joins values, the source holds several entries; their conditions need not be identical. Equal entries are not always repeated. About 5,700 (2.6%) of roughly 220,000 compounds were called active. This list was built around the results that the source calls inconclusive (neither active nor inactive); the mix of calls is not that of the screen. Calls come from the whole dose curve; as a rule, active = well fitted inhibition curve with a large enough effect; inconclusive = small, poorly fitted or top-dose-only effect; inactive = no such curve, though single readings can be large or run the other way. Where the call is inconclusive, the potency comes from a doubtful curve fit.
# Biological target: Lysine-specific demethylase 5B (Homo sapiens) (UniProt Q9UGL1)
# Experiment: Primary screen for KDM5B Histone Demethylases FDH-coupled qHTS; note: nearly all actives have a fitted effect of over 70% in size; for activity change, negative = inhibition: 0% is about no effect
# Conditions: FDH-coupled NADH fluorescence (FDH is formaldehyde dehydrogenase); activity change, negative = inhibition: at 57.7 µM (top of the series) unless noted
# Method in brief: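 qHTS format, multiple compound concentrations. Buffer 50 mM HEPES pH 7.5/0.01% Tween-20; 200 nM KDM5BΔAP final; 10 min compound preincubation; substrate-mix levels 12.5 µM peptide, 25 µM α-KG, 0.25 mM NAD⁺; 30 min RT; ΔRFU.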
# Potency is the fitted concentration of half-maximal effect; tags give direction and shape of the fitted curve.
# Sequence of UniProt Q9UGL1 (Q9UGL1 whole entry, looked up): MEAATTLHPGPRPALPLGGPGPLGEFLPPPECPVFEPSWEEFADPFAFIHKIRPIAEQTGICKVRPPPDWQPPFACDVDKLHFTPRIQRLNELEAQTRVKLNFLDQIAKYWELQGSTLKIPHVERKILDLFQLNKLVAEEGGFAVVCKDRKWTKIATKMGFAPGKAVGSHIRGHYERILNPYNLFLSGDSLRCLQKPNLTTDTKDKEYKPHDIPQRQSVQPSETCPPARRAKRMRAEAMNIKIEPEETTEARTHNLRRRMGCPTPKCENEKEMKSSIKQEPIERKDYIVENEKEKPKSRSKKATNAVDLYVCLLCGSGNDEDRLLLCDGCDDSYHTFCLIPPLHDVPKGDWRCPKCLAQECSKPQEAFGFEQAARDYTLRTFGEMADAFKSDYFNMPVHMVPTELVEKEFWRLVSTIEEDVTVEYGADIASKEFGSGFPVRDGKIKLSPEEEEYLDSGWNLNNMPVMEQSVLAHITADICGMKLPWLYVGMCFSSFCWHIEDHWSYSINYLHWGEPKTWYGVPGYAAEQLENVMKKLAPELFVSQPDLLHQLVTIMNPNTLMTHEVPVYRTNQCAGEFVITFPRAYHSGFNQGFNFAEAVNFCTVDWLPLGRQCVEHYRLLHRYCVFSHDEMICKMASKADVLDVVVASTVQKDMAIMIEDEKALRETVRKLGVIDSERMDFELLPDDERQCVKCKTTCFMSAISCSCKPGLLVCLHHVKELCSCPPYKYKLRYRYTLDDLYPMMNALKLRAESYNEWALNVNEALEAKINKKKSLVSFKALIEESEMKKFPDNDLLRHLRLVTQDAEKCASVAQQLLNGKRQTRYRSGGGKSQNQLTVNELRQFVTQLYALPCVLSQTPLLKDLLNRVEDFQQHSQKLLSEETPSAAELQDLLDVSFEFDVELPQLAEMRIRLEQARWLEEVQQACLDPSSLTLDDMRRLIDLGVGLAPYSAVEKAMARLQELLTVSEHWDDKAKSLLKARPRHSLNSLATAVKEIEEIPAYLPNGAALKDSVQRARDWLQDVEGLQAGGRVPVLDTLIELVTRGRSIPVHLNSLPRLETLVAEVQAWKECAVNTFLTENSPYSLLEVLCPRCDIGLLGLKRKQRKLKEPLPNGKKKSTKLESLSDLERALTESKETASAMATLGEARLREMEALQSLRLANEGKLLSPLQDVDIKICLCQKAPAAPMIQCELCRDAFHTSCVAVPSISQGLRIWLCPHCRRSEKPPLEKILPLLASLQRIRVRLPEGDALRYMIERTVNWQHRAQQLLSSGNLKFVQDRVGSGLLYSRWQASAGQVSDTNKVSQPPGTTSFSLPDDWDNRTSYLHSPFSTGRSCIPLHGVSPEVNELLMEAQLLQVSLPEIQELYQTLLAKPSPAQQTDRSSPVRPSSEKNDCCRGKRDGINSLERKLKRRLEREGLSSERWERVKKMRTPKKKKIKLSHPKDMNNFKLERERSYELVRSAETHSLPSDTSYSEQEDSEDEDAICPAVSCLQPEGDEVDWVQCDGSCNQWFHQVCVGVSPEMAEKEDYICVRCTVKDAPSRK
Compound,Potency,"activity change, negative = inhibition"
N#Cc1cnn(-c2ccc(NC(=O)c3ccc4[nH]c5c(c4c3)CCCC5)cc2)c1N,"inconclusive: 35.5 µM [inhibitor, single point]",–
N#Cc1cccc(C(=O)OC(c2ccccc2)c2ccccn2)c1 (stereo not drawn),inactive,–
CNC(=O)c1cc(Nc2cccc(N(C)C)c2)cc2c1OCCN2Cc1cccnc1,"inconclusive: 11.2 µM [inhibitor, partial curve, poor fit]",–
CCN1C(=O)C2CC3(CCN(C(=O)CCc4c(C)nn(C)c4C)CC3)CN2C1=O (stereo not drawn),inactive,–
O=C(NCc1cccs1)c1ccc2nccn2c1,active: 112 µM and active: 35.5 µM,–
Cc1cc(C)c(C(N)=O)c(NCc2ccccc2C)n1,"inconclusive: 25.1 µM [inhibitor, partial curve, poor fit]",–
COCCn1cc2c3c(cccc31)CN(C(=O)Cc1ccccc1C)CC2,"inconclusive: 28.2 µM [inhibitor, single point]",–
CCOc1ccc(-c2cc(C(=O)O)c3ccccc3n2)cc1,"inconclusive: 28.2 µM [inhibitor, partial curve, poor fit]",–
CCN(CC)CCN(C(=O)c1ccco1)c1nc2ccc(F)cc2s1,"inconclusive: 35.5 µM [inhibitor, single point]",–
Cc1ccc(C(=O)Nc2cc3c(cc2SCc2ccco2)n(C)c(=O)n3C)cc1,"inconclusive: 28.2 µM [inhibitor, partial curve, poor fit]",–
COCCN1CCC2(C1)CN(C)c1ccc(C(=O)NCC3CC3)cc12 (stereo not drawn),active: 35.5 µM,–
Cc1nc(-c2c[nH]c3ccccc23)c(C)s1,inactive,–
CC1(C(=O)N2CCN(c3ccccn3)CC2)CCCCC(=O)N1 (stereo not drawn),active: 17.8 µM,–
CC(CCc1ccccc1)NCc1ccc(C(=O)O)cc1 (stereo not drawn),inactive,–
COc1ccccc1NC(=O)N1CCN(c2nnc(C)c3c(C)n(-c4ccccc4)nc23)CC1,"inconclusive: 7.08 µM [inhibitor, partial curve, poor fit]",–
CCc1ccc(S(=O)(=O)Nc2cc3c(cc2C)n(C)c(=O)c(=O)n3C)cc1,"inconclusive: 31.6 µM [inhibitor, single point]",–
CN(C)c1ccc(CNC(=O)Cn2c(-c3cccs3)cc3cc(Cl)ccc32)cc1,"inconclusive: 5.01 µM [inhibitor, full curve, poor fit]",–
COCCOCc1nc(C2CCCN2C(=O)c2ccccn2)no1 (stereo not drawn),"inconclusive: 10 µM [inhibitor, partial curve]",–
CC(Oc1ccccc1)C(=O)Nc1c(C(=O)Nc2cccc(F)c2)oc2ccccc12 (stereo not drawn),"inconclusive: 39.8 µM [inhibitor, partial curve, poor fit]",–
CN(C)c1ccc(P(=O)(COc2ccc([N+](=O)[O-])cc2)c2ccc(N(C)C)cc2)cc1,"inconclusive: 35.5 µM [inhibitor, partial curve, poor fit]",–
CC(=O)N1CCN(Cc2nnc3cc(-c4nc(-c5ccccc5)no4)ccn23)CC1,active: 6.31 µM,–
Cc1cc(C)cc(NC(=S)N2CC(C)OC(C)C2)c1 (stereo not drawn),inactive,–

Compound,Potency,"activity change, negative = inhibition"
COc1ccc(C)cc1NC(=O)Cc1nc(-c2cccs2)oc1C,inactive,–
COc1ccc(-c2cc(NC(=O)c3c(C)noc3C(C)C)ccc2OC(F)F)cc1,inactive,–
O=C(CCC1CCCC1)NCCc1noc(C2CC2)n1,inactive,–
CC(C)NC(=O)c1ccc(CC2CCN(C)CC2)cc1,inactive,–
CC(CCc1ccccc1)NC(=O)Cn1ncc2c3ccccc3n(Cc3ccccc3)c2c1=O (stereo not drawn),"inconclusive: 17.8 µM [inhibitor, partial curve, poor fit]",–
O=C(CCN1C(=O)c2ccccc2Sc2ncccc21)Nc1ccc(F)cc1,"inconclusive: 0.891 µM [inhibitor, partial curve, poor fit]",–
CCCCOc1ccccc1C1CC(=O)Nc2cc(C)c(C)cc21 (stereo not drawn),inactive,–
CCC(N)(CC)c1cn(CC2CCCN(S(C)(=O)=O)C2)nn1 (stereo not drawn),"inconclusive: 14.1 µM [inhibitor, single point]",–
CCOC(=O)c1ccc(NC(=O)c2oc3c(c2C)-c2nn(Cc4ccccc4Cl)cc2CC3)cc1,"inconclusive: 1.12 µM [inhibitor, full curve, poor fit]",–
CC(=O)Oc1cc2c(=O)c3ccccc3sc2cc1C,"inconclusive: 2.51 µM [inhibitor, full curve, poor fit]",–
CN1C[C@@H](NC(=O)Nc2ccc(F)cc2F)C[C@H]1c1nc(-c2ccncc2)no1,"inconclusive: 56.2 µM [inhibitor, single point]",–
Cc1ncc(C(=O)NCc2cc3n(n2)CCCN(C2CCCCC2)C3)s1,inactive,–
COc1cccc(CNC(=O)CCn2cnc3ccccc3c2=O)c1,–,inconclusive: -34.4% [inhibitor] [at 11.5 µM]
COc1cc(F)ccc1-c1cc(-c2c(C)noc2C)c2cncn2c1,"inconclusive: 39.8 µM [inhibitor, partial curve, poor fit]",–
Cc1nc2cc(-c3cccc(F)c3)nn2c(C)c1CCC(=O)NC(C)c1ccccc1 (stereo not drawn),"inconclusive: 28.2 µM [inhibitor, partial curve, poor fit]",–
O=C(CSc1n[nH]c(-c2cc(Br)ccc2O)n1)N1CCCC1,"inconclusive: 12.6 µM [inhibitor, partial curve, poor fit]",–
Cc1ccc(OCC(=O)N(C)CC(=O)Nc2c(C)cccc2C)c(Br)c1,inactive,–
O=C(NC1CC1)C1(CCO)CCN(c2ncccn2)C1 (stereo not drawn),"inconclusive: 17.8 µM [inhibitor, partial curve, poor fit]",–
O=C1CO[C@H]2CN(Cc3c[nH]c4ccccc34)C[C@H]2N1Cc1ccccn1,"inconclusive: 35.5 µM [inhibitor, single point]",–
COC(=O)CCN(c1ccccc1)C(CNS(=O)(=O)c1ccccc1)c1ccccc1 (stereo not drawn),"inconclusive: 35.5 µM [inhibitor, single point]",–
O=C(c1ccccc1)N1CCn2c(nnc2C2CCNCC2)C1,"inconclusive: 44.7 µM [inhibitor, partial curve, poor fit]",–
